Experimental data reported in PubChem BioAssay AID588591 (National Center for Advancing Translational Sciences (NCATS), 2011).
Among all 390,000 compounds or so, about 4,700 (1.2%) were called active. Inconclusive means that the source gave no clear call. Such entries were picked first, then a sample of the others. Calls come from the whole dose curve; as a rule, active = well fitted inhibition curve with a large enough effect; inconclusive = small, poorly fitted or top-dose-only effect, or another doubt; inactive = no such curve, though single readings can be large or run the other way. A potency beside an inconclusive call is a rough fit, not a confirmed value.

molecular target: DNA polymerase eta (Homo sapiens) (UniProt Q9Y253); assay: qHTS for Inhibitors of Polymerase Eta; conditions: recombinant Pol eta, fluorescent DNA replication assay; series mostly up to 114 µM; activity change, negative = inhibition: at the top concentration
Chain of UniProt Q9Y253 (Q9Y253 whole entry, looked up): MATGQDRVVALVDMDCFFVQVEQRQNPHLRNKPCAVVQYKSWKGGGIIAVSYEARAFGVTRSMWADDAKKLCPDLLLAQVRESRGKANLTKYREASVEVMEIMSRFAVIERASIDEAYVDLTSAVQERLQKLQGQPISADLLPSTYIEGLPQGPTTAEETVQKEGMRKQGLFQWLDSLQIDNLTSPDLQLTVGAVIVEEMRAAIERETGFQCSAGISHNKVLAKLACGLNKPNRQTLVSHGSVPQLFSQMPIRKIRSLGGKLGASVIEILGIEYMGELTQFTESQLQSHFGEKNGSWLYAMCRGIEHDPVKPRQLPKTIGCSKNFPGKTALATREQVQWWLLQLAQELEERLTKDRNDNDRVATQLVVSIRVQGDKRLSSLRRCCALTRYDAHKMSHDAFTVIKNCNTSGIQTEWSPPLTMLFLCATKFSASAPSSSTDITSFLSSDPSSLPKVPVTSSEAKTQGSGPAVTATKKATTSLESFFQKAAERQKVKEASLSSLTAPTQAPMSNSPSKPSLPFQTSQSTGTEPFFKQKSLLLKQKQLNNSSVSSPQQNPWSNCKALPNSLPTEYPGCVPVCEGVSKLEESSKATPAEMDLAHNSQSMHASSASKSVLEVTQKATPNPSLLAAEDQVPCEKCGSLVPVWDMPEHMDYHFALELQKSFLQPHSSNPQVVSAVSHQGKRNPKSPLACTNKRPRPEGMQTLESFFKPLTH
Outline: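 Fluorescent replication assay: 50 nM final substrate added after a 15 min room-temperature compound preincubation with 10 nM enzyme. Signal taken at 0 min and again at 10 min.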
% is set by controls: 0 for no effect and ±100 for the full control effect; potency is the fitted concentration of half-maximal effect; tags give direction and shape of the fitted curve.

Compound	Potency	activity change, negative = inhibition
COc1ccc2c(COC(=O)CNC(=O)C34CC5CC(CC(C5)C3)C4)cc(=O)oc2c1	inconclusive: 39.8 µM [inhibitor, single point]	
COc1cn(CC(=O)Nc2ccc(C)cc2C)c(CN2CCCCC2)cc1=O		inactive: -19.7%
Cc1cc2c(cc1S(=O)(=O)N1CCC(C(N)=O)CC1)OCC(=O)N2		inactive: -2.02%
CCC(C)NC(=O)c1cccc(OCc2c(C)noc2C)c1 (centres undefined)		inactive: 9.35%
CN(C)Cc1cc(C(C)(C)C)cc(C(C)(C)C)c1O		inactive: 2.28%
CCOc1ccc(C(=O)/C=C/c2ccc(OC)c(OC)c2)cc1	inconclusive: 89.1 µM [inhibitor, partial curve, poor fit]	
COc1ccc(/C=N/Nc2snc(SC)c2C#N)cc1OC		inactive: -4.65%
CC(C)OCCCn1c(=O)c2ccccc2n2c(-c3ccc(F)c(F)c3)nnc12		inactive: 0.726%
CCCCNC(=O)N1CCN(c2ccnc3cc(Cl)ccc23)CC1	inconclusive: 56.2 µM [inhibitor, partial curve, poor fit]	
CC1CCCC(NC(=O)CCC(=O)c2ccc(F)cc2)C1C (centres undefined)	inconclusive: 100 µM [inhibitor, partial curve, poor fit]	
CN(C)C(CNC(=O)CCOc1ccccc1)c1ccco1 (centres undefined)	inconclusive: 39.8 µM [inhibitor, partial curve]	
Cc1ccc(CCNC(=O)c2ccc(Cn3c(=O)c4cccn4c4cccnc43)cc2)cc1	inconclusive: 56.2 µM [inhibitor, partial curve, poor fit]	
CNS(=O)(=O)c1cccc(C(=O)OCC(=O)N2c3ccccc3NC(=O)C2(C)C)c1	inconclusive: 50.1 µM [inhibitor, partial curve]	
Cc1ccc(-c2ccc(SCC(=O)Nc3ccc4c(c3)OCCO4)nn2)cc1	inconclusive: 15.8 µM [inhibitor, partial curve, poor fit]	
O=C(COC(=O)CC1CCCC1)Nc1cc2c(cc1Cl)C(=O)c1ccccc1C2=O	inconclusive: 31.6 µM [inhibitor, single point]	
O=C(/C=C/c1ccccn1)c1cc(Cl)cc(Cl)c1O	inconclusive: 89.1 µM [inhibitor, partial curve, poor fit]	
Cc1ccc[n+](-c2[nH]c(=O)sc2/C=N/N=C(\[O-])c2cccnc2)c1		inactive: -9.65%
NC(=S)N/N=C/c1cc([N+](=O)[O-])ccc1OCCOc1ccccc1	inconclusive: 5.01 µM [inhibitor, full curve, poor fit]	
COc1cc(OC)cc(-n2c3nc4ccccc4nc3c3c(=O)n(CC4CCCO4)cnc32)c1 (centres undefined)	inconclusive: 25.1 µM [inhibitor, single point]	
